# Measurements reported in the RNAGym collection of RNA variant scans (doi:10.7554/elife.90254).
# The source gives no read counts; variants with many changes may rest on few reads.
# B1: LINE1-mini (parent)
# chain: GGCAGAGCUCAACACAGCGUGGCAAAGUGGCUGUGGCUAGACUGCC
# Variants of: B1
# Assay: self-cleavage, relative activity (ratio to wild type); higher = more cleavage; in vitro, sequencing; the parent is a self-cleaving ribozyme
row,Variant,self-cleavage
1,G21U A24C U32G,0.09
2,U20G G30C C31G,0.09
3,G22C G44U C45A,0.01
4,G22U U34A A41U C42U,0.05
5,G22A G35A U38G A39G U43A C45U,0.01
6,G21C C23U U34G G40C,0.02
7,G22U U38G A39U,0.05
8,G22A A25C G35U,0
9,G21C G30U G40C,0.04
10,U20G G21A G36C C37G,0.04
11,G21A A24U C42A,0.67
12,G22C A25U G30A G40A,0.05
13,G21U U32A G36A A39U C45A,0.17
14,C23A A24G G29C C42A G44A,0.1
15,C23A A25U U38A,0.06
16,G21U G22A A41C,0.11
17,G22C G44A C46A,0.02
18,G21U G27U G30C,2.7
19,G21A G33U G40C,0.05
20,G21U G22U U43C,1.96
21,G22U C37G A41G,0.01
22,G21A C31A G33A U34C C37G,0.05
23,G22C U32C C37U,0.01
24,G21U G33C G35U,0.06

row,Variant,self-cleavage
1,G22C G36C A39G,0.09
2,G22U G30A U34C G36C,0.02
3,G22C A25G G30A U34G,0.04
4,C23A G30U G36C,0.4
5,G21C G33C C42U,0.03
6,C23A A39G G44U,0.03
7,U20G G22U G30C U38A A41U C45G,0.04
8,G21U G30U G33A U38G,0.01
9,C23A G30A G33A,0.03
10,G22U C23A A41G U43C,0.06
11,G22U G33U C46G,0.07
12,G22C G30C U38A,0.72
13,C23A A25U A26U C42A,0.02
14,G22A A26U G27C G40U,0.51
15,G21U G30U C31A G40U G44A,0.06
16,G22C A24U U28C C46U,0.59
17,C23A G29U A39C,0.2
18,G22C A26U C46A,0.23
19,G22A G27U G33U G35U,0.08
20,U20G U38A G44U,0.08
21,G21U U28C U38C G40C,0.03
22,G22A C31A A39C,0.02
23,G22C C37U A41C C45G,0
24,G21C G36C A41G,0.06

row,Variant,self-cleavage
1,G21A G22A A25U C31G C45U,0.1
2,G21U G33U A41G,0.02
3,G21A G40C G44A C46G,0.05
4,C23A C37G G44U,0
5,G22U C23A C42G,0.05
6,G22U A39G G44C,0.23
7,C23A A26C G33C,0.03
8,G21U G22U G27U,0.54
9,G22C A24G A25U G35C C46U,0.01
10,G22C G30C G44A,0.18
11,G21U G22A G40U,0.05
12,G22C C37A G40A,0.33
13,G21U G33A C42A,0.11
14,U20G U28A G30C,1.18
15,C23G C31U U38G,0
16,G22U G29A G36C G40U,0.09
17,G21C G33U C46U,0.01
18,G21U U28G C42G,0.03
19,C23A G29U C31U,0.43
20,G21U G22C U43A C45U,0.05
21,G21U G22A G35C,0.14
22,G21U C37U C45A,0.02
23,G21C A26C C31A,0.43
24,G22C C31U U34G G35C,0.04

row,Variant,self-cleavage
1,C23A A25U A26G G33A U34C,0.12
2,G21C A25G G27C,0.14
3,G21U U32G U38C,0.1
4,G22U A24G G27A,0.1
5,C23A A25C G36U G44C,0.06
6,U20G G29C G40U,0.04
7,U20G U28A U32G A41U G44A,0.02
8,C23G A26G G40A,0.09
9,G22U C23A A26C G27C G36C,0.06
10,G21A G29A U32A,0.23
11,U20G G21A U38G,0.01
12,G21U C37G G40C C46A,0.03
13,C23A G36U U43A,0.03
14,G22U A25U G30C C42G C46A,0.06
15,C23A A26C U38G C46U,0.01
16,C23G G33C U38C,0.03
17,G21C G22U U28G,1.06
18,G22U C37G G40U,0.06
19,G21U G33U C45U,0.13
20,G22A G35U G36A A39G,0.52
21,G22C A25C U34C,0.03
22,C23A G35U A39G,0
23,G22U A41G U43A,0.02
24,C23A U34C G44U,0.05

row,Variant,self-cleavage
1,G22C G30U G35C U43C,0.02
2,U20G G27U G36C,0.31
3,G21A G30A C42U C45U,0.48
4,G21U G22C A39C G44C,0.08
5,G22A A25G C37A,0.02
6,G22U G35A G40U C45A,0.14
7,G21U G30A U32G,0.29
8,C23A C37G C42G,0
9,C23G G29C C42A,0
10,G21A G27C G40A U43A G44A,0.04
11,G22U C31G U34A,0.03
12,C23A G35A G40A C42G C46U,0.01
13,G21A U32C G44C,0.17
14,G21A A24U G30U G36A,0.53
15,G21C C31U G44U,0.03
16,C23A A26U U34G,0.23
17,G22U A25U C42U,3
18,G22U G30A C42G,0.07
19,G22U A26C C45A,1.1
20,G22U G30A G35A G36U A41C,0.03
21,C23G A24G A39U,0.1
22,U20G G27U U28G U43A,0.02
23,G22C C45U C46U,0.21
24,U20G G30A C37G,0.08

row,Variant,self-cleavage
1,C23A A24G A26C G36C G40U,0.08
2,U20G G33U A39G,0.03
3,G22U C42A C45A,0.02
4,G21A G22A A39G,0.02
5,G21C G22C U38G C42A,0.01
6,G21C A25U G33A,0.02
7,G21A G35U C37U A41U,0.03
8,G22A G29C G44A C45U,0.08
9,G22A U28G C37A,0.02
10,G22A G27U G40C C42U,0.17
11,G21A U28G G44U,0.24
12,G21U C42G U43C G44U,0.02
13,G21C C23A U34G C45U,0.12
14,G21U C23G A24U C45A,0.29
15,G21A G30C U43G,0
16,C23A G27C G44A,0.09
17,G22U C23U C31A,0.54
18,G22A G30A G36U,0.04
19,C23A G27A G29U G40A,0.16
20,C23A A24C C37G U43G,0
21,U20G G21C C37U,0.02
22,G21A G22C A26G G40U C42A,0.04
23,C23G G35A C45U,0.11
24,G22U G27U U43G,0

row,Variant,self-cleavage
1,G21U G27U G36C U38G,0.04
2,C23A A25U A39U,0.58
3,C23A G29U G33C,0.03
4,G21C G30U A41G,0.57
5,G21A G29U A41G,0.12
6,G22U C23A A24G U28C G35C G36C U43G,0.01
7,G21A U28G C31G,0.03
8,C23A A26C C31A,0.46
9,G21U C31A G33A U43A G44A,0.01
10,C23G C31G C46G,0.13
11,G21C U28A G40C,0.02
12,G21C U28A G36U,0.02
13,G22C C37U G44U,0.25
14,G22C C37U G44A,0.07
15,U20G G22U C31G G44U C45U,0.07
16,G22C G30U G40U,0.09
17,C23A C31U G44A,0.16
18,G22A G35C G36C,0.14
19,G22U A24G G30U,1.21
20,G22C A25G C42U,0.76
21,G21U G36A C42A,0.1
22,C23A A26G G40U,0.09
23,G22U U32C U43G,0.03
